From PubChem BioAssay AID602310 (National Center for Advancing Translational Sciences (NCATS), 2012)
About 310 (0.076%) of roughly 410,000 compounds were called active. The shares of active, inactive and inconclusive entries below differ from those in the screen. Calls follow the shape of the dose curve; as a rule, active = well fitted curve in the direction sought with a large enough effect; inconclusive = small, poorly fitted or top-dose-only effect; inactive = flat fitted curve, though single readings scatter. A potency beside an inconclusive call is a rough fit, not a confirmed value.

Target: DNA dC->dU-editing enzyme APOBEC-3G (Homo sapiens) (UniProt Q9HC16)
Assay: qHTS for Inhibitors of Vif-A3G Interactions: qHTS; also: nearly all actives have a fitted effect of over 60% in size
Settings: HeLa A3G-eYFP + Vif (tagged APOBEC3G with the HIV-1 protein that degrades it), YFP fluorescence, overnight; series mostly up to 46.1 µM
Outline: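 Read-out is eYFP fluorescence (Ex 488/Em 500-530) from Vif-expressing HeLa A3G-eYFP cells; more signal means A3G escaped Vif-mediated degradation. Cells plated overnight, compound pinned in, incubated overnight at 37 deg C.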
Potency is read from the fitted curve at half-maximal effect; tags tell the direction and shape of the fitted curve.

UniProt Q9HC16, sequence (Q9HC16 whole entry, looked up): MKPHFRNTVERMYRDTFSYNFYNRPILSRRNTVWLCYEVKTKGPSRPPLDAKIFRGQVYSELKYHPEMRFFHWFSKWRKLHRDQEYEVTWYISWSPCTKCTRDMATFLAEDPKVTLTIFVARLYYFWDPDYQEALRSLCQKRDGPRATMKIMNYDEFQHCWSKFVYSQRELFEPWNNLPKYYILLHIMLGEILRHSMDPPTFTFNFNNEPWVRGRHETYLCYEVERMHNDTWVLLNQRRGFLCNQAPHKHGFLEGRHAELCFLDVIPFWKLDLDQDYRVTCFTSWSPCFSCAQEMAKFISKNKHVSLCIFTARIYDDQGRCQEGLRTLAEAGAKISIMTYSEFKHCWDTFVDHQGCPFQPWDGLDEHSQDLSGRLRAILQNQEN

Row | Structure (SMILES) | Potency
1 | COc1ccc(-n2c(-c3cc(-c4ccccc4)sc3N)n[nH]c2=S)cc1 | inconclusive: 35.5 µM [inhibitor, single point]
2 | COc1cc2oc(=O)ccc2cc1-c1c(OC)ccc2ccc(=O)oc12 | inconclusive: 25.1 µM [inhibitor, single point]
3 | Cc1cccc(Nc2nc(N3CCCC3)nc(N3CCCC3)n2)c1 | inactive
4 | Cc1cc(Nc2ccccc2)n(-c2ccc(Br)cc2)n1 | inconclusive: 35.5 µM [inhibitor, single point]
5 | CNc1cncc(-c2cc(C)c(O)c(C)c2)n1 | inconclusive: 7.08 µM [inhibitor, partial curve, poor fit]
6 | O=C(CSc1ccccn1)Nc1nonc1[N+](=O)[O-] | inconclusive: 12.6 µM [inhibitor, single point]
7 | Oc1ccc(C[C@H]2CNC(=S)N2CC2CCCN2C[C@H](Cc2ccccc2)N2C[C@H](Cc3ccc(O)cc3)N(CC3CCCCCC3)C2=S)cc1 (stereo partly drawn) | inactive
8 | Cc1sc2ncn(CC(=O)NCc3ccccc3)c(=O)c2c1C | inconclusive: 11.2 µM [inhibitor, partial curve]
9 | COc1ccccc1-c1cc(C(=O)N/N=C/c2ccc(C)o2)c2ccccc2n1 | inconclusive: 20 µM [inhibitor, single point]
10 | COc1cccc(-c2cc(NC(C)=O)c3ncc(-c4ccc(OC)c(OC)c4)n3c2)c1 | inconclusive: 25.1 µM [inhibitor, single point]
11 | CC(=O)c1cc(C#N)c(NCc2ccccc2)nc1C | inconclusive: 12.6 µM [inhibitor, partial curve, poor fit]
12 | CN(C)S(=O)(=O)c1cccc(-c2nn(-c3ccccc3)cc2/C=C2\SC(=S)NC2=O)c1 | inactive
13 | CCCN(CCC)CC(O)Cn1cc(/C=C/C(=O)c2ccc(OCC)cc2)c2ccccc21 (stereo not drawn) | inconclusive: 35.5 µM [inhibitor, single point]
14 | Cc1[nH]c2ccc(C(=O)N3CCN(c4cccc(Cl)c4)CC3)cc2c1C | inconclusive: 2.24 µM [inhibitor, partial curve, poor fit]
15 | Cc1ccc(S(=O)(=O)CCC(=O)Nc2nnc(-c3cccs3)o2)cc1 | inactive
16 | Nc1nc(SCc2ccccc2Cl)nc2nc3c(cc12)CCCC3 | inconclusive: 12.6 µM [inhibitor, single point]
17 | COCCNc1ncnc2c1cnn2Cc1ccccc1Cl | inconclusive: 28.2 µM [inhibitor, partial curve, poor fit]
18 | CCOC(=O)C(C(=O)Nc1ccc(C)cc1)C1CCCCC1 (stereo not drawn) | inconclusive: 14.1 µM [inhibitor, partial curve, poor fit]
